Test results reported in article PMC11077375.
These are yes or no findings as the source states them, for the method shown. Binding seen in cells or lysates may run through a third protein. Some results given as binding are weak or reduced against the parent protein; the word gives no strength. For part of these data: Tags and fused reporters may be left off the sequences shown. One block for each binder: values may come before it.

Amino acid sequences for entries named in this document (tags omitted). A change or cut given only in a name is not applied to a line headed by its entry. Chains listed by the source or under a name are the forms on record and can include a tag or linker. Residues count along the entry.
UniProt Q9EPK5: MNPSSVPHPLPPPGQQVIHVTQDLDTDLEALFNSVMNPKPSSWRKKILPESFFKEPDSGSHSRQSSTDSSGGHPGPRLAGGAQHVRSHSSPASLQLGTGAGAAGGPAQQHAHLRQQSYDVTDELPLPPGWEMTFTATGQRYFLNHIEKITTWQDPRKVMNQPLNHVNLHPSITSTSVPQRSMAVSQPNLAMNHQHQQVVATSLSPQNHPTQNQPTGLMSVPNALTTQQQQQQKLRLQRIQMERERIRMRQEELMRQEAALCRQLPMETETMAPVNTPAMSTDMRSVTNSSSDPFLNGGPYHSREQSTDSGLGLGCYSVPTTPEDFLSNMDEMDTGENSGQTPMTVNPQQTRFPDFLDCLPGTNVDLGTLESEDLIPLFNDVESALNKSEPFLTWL
TAZ 1-163 (N-terminal domain of TAZ), Flag-tagged: residues 1-163 of Q9EPK5
TAZ 1-123 (N-terminal 123-amino acid region of TAZ), Flag-tagged: residues 1-123 of Q9EPK5
TAZ 124-395 (C-terminal domain of TAZ containing the WW domain), Flag-tagged: residues 124-395 of Q9EPK5

Key:
[1] = target: Flag-tagged full-length TAZ (transcriptional coactivator with PDZ-binding motif) (UniProt Q9EPK5); assay: co-IP; HEK-293T cells transfected (calcium phosphate) with Flag-tagged TAZ forms and Myc- or GFP-tagged NRF2 forms; lysates immunoprecipitated with Flag-M2 agarose beads overnight; immunoblot with anti-Myc (9E10) or anti-GFP (B-2)
[2] = target: TAZ 1-123 (N-terminal 123-amino acid region of TAZ), Flag-tagged (UniProt Q9EPK5); assay: as above
[3] = target: TAZ 1-163 (N-terminal domain of TAZ), Flag-tagged (UniProt Q9EPK5); assay: as above
[4] = target: TAZ 124-395 (C-terminal domain of TAZ containing the WW domain), Flag-tagged (UniProt Q9EPK5); assay: as above
[5] = target: Endogenous TAZ (mouse (endogenous in lung tissue and MEF cells)) (UniProt Q9EPK5); assay: co-IP; endogenous proteins; mouse lung extracts and MEF cell lysates of WT and TAZ KO mice incubated with anti-TAZ antibody and then protein A/G-agarose beads; immunoblot for NRF2 and TAZ

binding [1]: binds
B1: NRF2 131-597 (NRF2 with the 1-130 aa region removed) (domain or fragment, UniProt Q60795 131-597)
chain: DDHESLALDIPSHAESSVFTAPHQAQSLNSSLEAAMTDLSSIEQDMEQVWQELFSIPELQCLNTENKQLADTTAVPSPEATLTEMDSNYHFYSSISSLEKEVGNCGPHFLHGFEDSFSSILSTDDASQLTSLDSNPTLNTDFGDEFYSAFIAEPSDGGSMPSSAAISQSLSELLDGTIEGCDLSLCKAFNPKHAEGTMEFNDSDSGISLNTSPSRASPEHSVESSIYGDPPPGFSDSEMEELDSAPGSVKQNGPKAQPAHSPGDTVQPLSPAQGHSAPMRESQCENTTKKEVPVSPGHQKAPFTKDKHSSRLEAHLTRDELRAKALHIPFPVEKIINLPVDDFNEMMSKEQFNEAQLALIRDIRRRGKNKVAAQNCRKRKLENIVELEQDLGHLKDEREKLLREKGENDRNLHLLKRRLSTLYLEVFSMLRDEDGKPYSPSEYSLQQTRDGNVFLVPKSKKPDTKKN

binding [1]: binds
binding [2]: binds
binding [3]: binds
binding [4]: no binding
B2: Myc-linked NRF2 (nuclear factor erythroid 2-related factor 2) (protein, UniProt Q60795 1-597)
chain: MMDLELPPPGLQSQQDMDLIDILWRQDIDLGVSREVFDFSQRQKDYELEKQKKLEKERQEQLQKEQEKAFFAQFQLDEETGEFLPIQPAQHIQTDTSGSASYSQVAHIPKQDALYFEDCMQLLAETFPFVDDHESLALDIPSHAESSVFTAPHQAQSLNSSLEAAMTDLSSIEQDMEQVWQELFSIPELQCLNTENKQLADTTAVPSPEATLTEMDSNYHFYSSISSLEKEVGNCGPHFLHGFEDSFSSILSTDDASQLTSLDSNPTLNTDFGDEFYSAFIAEPSDGGSMPSSAAISQSLSELLDGTIEGCDLSLCKAFNPKHAEGTMEFNDSDSGISLNTSPSRASPEHSVESSIYGDPPPGFSDSEMEELDSAPGSVKQNGPKAQPAHSPGDTVQPLSPAQGHSAPMRESQCENTTKKEVPVSPGHQKAPFTKDKHSSRLEAHLTRDELRAKALHIPFPVEKIINLPVDDFNEMMSKEQFNEAQLALIRDIRRRGKNKVAAQNCRKRKLENIVELEQDLGHLKDEREKLLREKGENDRNLHLLKRRLSTLYLEVFSMLRDEDGKPYSPSEYSLQQTRDGNVFLVPKSKKPDTKKN

binding [5]: binds
B3: Endogenous NRF2 (protein, UniProt Q60795 1-597)
chain: B2 chain
